# Assay results as given in the supplement of paper PMC8728848.
# The other results are listed elsewhere or left out.
# B1: LecB PA7 (Pseudomonas aeruginosa) (protein)
# chain: MATQGVFTLPANTRFGVTAFANSSATQTVKVLVNNETAATFTGQSTNNAVIGSQVLNSGGGGKVQIQVSVNGRSSDLVSAQVILANELNVALVGSEDSTDNDYNDAVVVINWPLG
# Columns and labels:
# Test in all cases: glycan array binding signal (z-score within array); higher = stronger binding
# Conditions in all cases: glycan notation: IUPAC condensed, linker removed
# [1] = target: Neu5Ac(a2-3)Gal(b1-3)GlcNAc6S
# Outline: (§1)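 The binding signal is a Z-score computed within each array. Data were drawn from 3228 arrays in the Consortium for Functional Glycomics database, restricted to those with a known protein sequence. Scores were averaged over arrays of the same protein sequence at different concentrations or buffers, and over linkers, and negative values can be taken as non-binding.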
# [2] = target: Neu5Ac(a2-3)Gal(b1-3)[Fuc(a1-4)]GlcNAc
# Outline: as §1
# [3] = target: Neu5Ac(a2-3)Gal(b1-3)[Fuc(a1-4)]GlcNAc(b1-3)Gal(b1-3)[Fuc(a1-4)]GlcNAc
# Outline: as §1
# [4] = target: Neu5Ac(a2-3)Gal(b1-3)[Fuc(a1-4)]GlcNAc(b1-3)Gal(b1-4)[Fuc(a1-3)]GlcNAc
# Outline: as §1
# [5] = target: Neu5Ac(a2-3)Gal(b1-3)[GlcNAc(b1-6)]GalNAc
# Outline: as §1
# [6] = target: Neu5Ac(a2-3)Gal(b1-3)[Neu5Ac(a2-6)]GalNAc
# Outline: as §1
# [7] = target: Neu5Ac(a2-3)Gal(b1-3)[Neu5Ac(a2-6)]GlcNAc(b1-3)[Fuc(a1-3)[Gal(b1-4)]GlcNAc(b1-6)]Gal(b1-4)Glc
# Outline: as §1
# [8] = target: Neu5Ac(a2-3)Gal(b1-3)]Neu5Ac(a2-3)Gal(b1-4)]GlcNAc
# Outline: as §1
# Neu5Ac(a2-3)Gal(b1-4)Glc = target: Neu5Ac(a2-3)Gal(b1-4)Glc
# Outline: as §1
# [9] = target: Neu5Ac(a2-3)Gal(b1-4)GlcNAc
# Outline: as §1
# [10] = target: Neu5Ac(a2-3)Gal(b1-4)GlcNAc(b1-2)Man
# Outline: as §1
# [11] = target: Neu5Ac(a2-3)Gal(b1-4)GlcNAc(b1-2)Man(a1-3)[GlcNAc(b1-4)][Neu5Ac(a2-3)Gal(b1-4)GlcNAc(b1-2)Man(a1-6)]Man(b1-4)GlcNAc(b1-4)GlcNAc
# Outline: as §1
# [12] = target: Neu5Ac(a2-3)Gal(b1-4)GlcNAc(b1-2)Man(a1-3)[Neu5Ac(a2-3)Gal(b1-4)GlcNAc(b1-2)Man(a1-6)]Man(b1-4)GlcNAc(b1-4)GlcNAc
# Outline: as §1
# [13] = target: Neu5Ac(a2-3)Gal(b1-4)GlcNAc(b1-2)Man(a1-3)[Neu5Ac(a2-3)Gal(b1-4)GlcNAc(b1-2)Man(a1-6)]Man(b1-4)GlcNAc(b1-4)[Fuc(a1-6)]GlcNAc
# Outline: as §1
# [14] = target: Neu5Ac(a2-3)Gal(b1-4)GlcNAc(b1-2)Man(a1-3)[Neu5Ac(a2-6)Gal(b1-4)GlcNAc(b1-2)Man(a1-6)]Man(b1-4)GlcNAc(b1-4)GlcNAc
# Outline: as §1
# [15] = target: Neu5Ac(a2-3)Gal(b1-4)GlcNAc(b1-2)[Neu5Ac(a2-3)Gal(b1-4)GlcNAc(b1-4)]Man(a1-3)[GlcNAc(b1-4)][Neu5Ac(a2-3)Gal(b1-4)GlcNAc(b1-2)[Neu5Ac(a2-3)Gal(b1-4)GlcNAc(b1-6)]Man(a1-6)]Man(b1-4)GlcNAc(b1-4)GlcNAc
# Outline: as §1
# [16] = target: Neu5Ac(a2-3)Gal(b1-4)GlcNAc(b1-2)[Neu5Ac(a2-3)Gal(b1-4)GlcNAc(b1-4)]Man(a1-3)[GlcNAc(b1-4)][Neu5Ac(a2-3)Gal(b1-4)GlcNAc(b1-4)Man(a1-6)]Man(b1-4)GlcNAc(b1-4)GlcNAc
# Outline: as §1
# [17] = target: Neu5Ac(a2-3)Gal(b1-4)GlcNAc(b1-2)[Neu5Ac(a2-3)Gal(b1-4)GlcNAc(b1-6)]Man(a1-6)[Neu5Ac(a2-3)Gal(b1-4)GlcNAc(b1-2)Man(a1-3)][GlcNAc(b1-4)]Man(b1-4)GlcNAc(b1-4)GlcNAc
# Outline: as §1
# [18] = target: Neu5Ac(a2-3)Gal(b1-4)GlcNAc(b1-3)Gal
# Outline: as §1
# [19] = target: Neu5Ac(a2-3)Gal(b1-4)GlcNAc(b1-3)Gal(b1-3)GlcNAc
# Outline: as §1
# [20] = target: Neu5Ac(a2-3)Gal(b1-4)GlcNAc(b1-3)Gal(b1-4)GlcNAc
# Outline: as §1
# [21] = target: Neu5Ac(a2-3)Gal(b1-4)GlcNAc(b1-3)Gal(b1-4)GlcNAc(b1-2)Man(a1-3)[Neu5Ac(a2-3)Gal(b1-4)GlcNAc(b1-3)Gal(b1-4)GlcNAc(b1-2)Man(a1-6)]Man(b1-4)GlcNAc(b1-4)GlcNAc
# Outline: as §1
# [22] = target: Neu5Ac(a2-3)Gal(b1-4)GlcNAc(b1-3)Gal(b1-4)GlcNAc(b1-3)Gal(b1-4)GlcNAc
# Outline: as §1
# [23] = target: Neu5Ac(a2-3)Gal(b1-4)GlcNAc(b1-3)Gal(b1-4)GlcNAc(b1-3)Gal(b1-4)GlcNAc(b1-2)Man(a1-3)[Neu5Ac(a2-3)Gal(b1-4)GlcNAc(b1-3)Gal(b1-4)GlcNAc(b1-3)Gal(b1-4)GlcNAc(b1-2)Man(a1-6)]GalNAc
# Outline: as §1
# [24] = target: Neu5Ac(a2-3)Gal(b1-4)GlcNAc(b1-3)Gal(b1-4)GlcNAc(b1-3)GalNAc
# Outline: as §1
# [25] = target: Neu5Ac(a2-3)Gal(b1-4)GlcNAc(b1-3)Gal(b1-4)GlcNAc(b1-3)[Neu5Ac(a2-3)Gal(b1-4)GlcNAc(b1-3)Gal(b1-4)GlcNAc(b1-6)]GalNAc
# Outline: as §1
# [26] = target: Neu5Ac(a2-3)Gal(b1-4)GlcNAc(b1-3)Gal(b1-4)GlcNAc(b1-6)[Gal(b1-3)]GalNAc
# Outline: as §1
# [27] = target: Neu5Ac(a2-3)Gal(b1-4)GlcNAc(b1-3)Gal(b1-4)[Fuc(a1-3)]GlcNAc
# Outline: as §1
# [28] = target: Neu5Ac(a2-3)Gal(b1-4)GlcNAc(b1-3)GalNAc
# Outline: as §1
# [29] = target: Neu5Ac(a2-3)Gal(b1-4)GlcNAc(b1-3)[Neu5Ac(a2-3)Gal(b1-4)GlcNAc(b1-6)]GalNAc
# Outline: as §1
binder,measurement,setting,value
B1,glycan array binding signal (z-score),[1],-0.461
same,glycan array binding signal (z-score),[2],3.31
same,glycan array binding signal (z-score),[3],3.06
same,glycan array binding signal (z-score),[4],2.81
same,glycan array binding signal (z-score),[5],-0.507
same,glycan array binding signal (z-score),[6],-0.438
same,glycan array binding signal (z-score),[7],-0.227
same,glycan array binding signal (z-score),[8],-0.509
same,glycan array binding signal (z-score),Neu5Ac(a2-3)Gal(b1-4)Glc,-0.481
same,glycan array binding signal (z-score),[9],-0.513
same,glycan array binding signal (z-score),[10],-0.485
same,glycan array binding signal (z-score),[11],-0.507
same,glycan array binding signal (z-score),[12],-0.505
same,glycan array binding signal (z-score),[13],0.098
same,glycan array binding signal (z-score),[14],-0.234
same,glycan array binding signal (z-score),[15],-0.516
same,glycan array binding signal (z-score),[16],-0.511
same,glycan array binding signal (z-score),[17],-0.504
same,glycan array binding signal (z-score),[18],-0.035
same,glycan array binding signal (z-score),[19],-0.505
same,glycan array binding signal (z-score),[20],-0.51
same,glycan array binding signal (z-score),[21],-0.454
same,glycan array binding signal (z-score),[22],-0.513
same,glycan array binding signal (z-score),[23],-0.236
same,glycan array binding signal (z-score),[24],-0.512
same,glycan array binding signal (z-score),[25],-0.499
same,glycan array binding signal (z-score),[26],-0.51
same,glycan array binding signal (z-score),[27],-0.507
same,glycan array binding signal (z-score),[28],-0.466
same,glycan array binding signal (z-score),[29],-0.516
